# Whole data set: some 2,900 compounds, median “IRF Lucia reporter activity, fold change vs agonist alone” near 0.9, cut for the highest 2% near 2.8. The list shows a part of the results.
# Legend:
# RAW-Dual [1] = test: IRF Lucia reporter activity, fold change vs agonist alone; cytotoxicity flag (confluency mask): cytotoxic (confluency <70% of control); higher = enhanced IRF activity
# Procedure, shortened: (§1)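 RAW-Dual macrophages were seeded in DMEM at 50,000 cells/well in 384-well plates, given 50 nL of library stock by pin tool, and given a PRR agonist 1 h later. Plates were held at 37 °C, 5% CO2 for 20 hours, after which supernatant was read for IRF by QuantiLuc luminescence and for NF-κB by QuantiBlue absorbance at 620 nm. Reporter activity is expressed as fold change over wells that received agonist alone. A well was called cytotoxic when IncuCyte confluency fell below 70% of agonist controls in both mask sets.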
# RAW-Dual [2] = test: IRF Lucia reporter activity, fold change vs agonist alone; higher = enhanced IRF activity; settings: agonist: MPLA (TLR4) […]
# Procedure, shortened: as §1
# RAW-Dual [3] = test: IRF Lucia reporter activity, fold change vs agonist alone; cytotoxicity flag (confluency mask): not cytotoxic; higher = enhanced IRF activity
# Procedure, shortened: as §1
# [4] = agonist: 3'3'-cGAMP (STING) 10 ug/mL
# [5] = library stock concentration (final ~1000-fold dilution): 10 mM, cytotoxicity flag (confluency mask): cytotoxic (confluency <70% of control)
# [6] = library stock concentration (final ~1000-fold dilution): 10 mM, cytotoxicity flag (confluency mask): not cytotoxic
# [7] = library stock concentration (final ~1000-fold dilution): 10 mM water, cytotoxicity flag (confluency mask): not cytotoxic
smiles,measurement,setting,value
CNC(C)C(=O)NC(C(=O)N1CCCC1c1nc(C(=O)c2ccc(F)cc2)cs1)C1CCCCC1 (stereo not given) (library stock concentration (final ~1000-fold dilution): 10 mM),IRF Lucia reporter activity,RAW-Dual [1]; [4],0.262
same,IRF Lucia reporter activity,RAW-Dual [1]; agonist: LPS (TLR4) 0.1 ug/mL,0.325
CNC(C)C(=O)NC(C(=O)N1CCCC1c1nc(C(=O)c2ccc(F)cc2)cs1)C1CCCCC1 (stereo not given),IRF Lucia reporter activity,RAW-Dual [2]; [5],0.383
O=C(Nc1cccc(Nc2ncc(Br)c(NCCc3cnc[nH]3)n2)c1)N1CCCC1,IRF Lucia reporter activity,RAW-Dual [2]; [6],0.0526
O=C(Nc1cccc(Nc2ncc(Br)c(NCCc3cnc[nH]3)n2)c1)N1CCCC1 (library stock concentration (final ~1000-fold dilution): 10 mM),IRF Lucia reporter activity,RAW-Dual [3]; [4],0.0254
same,IRF Lucia reporter activity,RAW-Dual [3]; agonist: LPS (TLR4) 0.1 ug/mL,0.0368
Cc1cc(C)nc(SCC(=O)Nc2ncc(Cc3cccc4ccccc34)s2)n1 (library stock concentration (final ~1000-fold dilution): 10 mM),IRF Lucia reporter activity,RAW-Dual [3]; [4],0.189
same,IRF Lucia reporter activity,RAW-Dual [3]; agonist: LPS (TLR4) 0.1 ug/mL,0.972
C#CCC(Cc1cnc2nc(N)nc(N)c2n1)c1ccc(C(=O)NC(CCC(=O)O)C(=O)O)cc1 (stereo not given),IRF Lucia reporter activity,RAW-Dual [2]; [6],0.71
C#CCC(Cc1cnc2nc(N)nc(N)c2n1)c1ccc(C(=O)NC(CCC(=O)O)C(=O)O)cc1 (stereo not given) (library stock concentration (final ~1000-fold dilution): 10 mM),IRF Lucia reporter activity,RAW-Dual [3]; [4],0.96
same,IRF Lucia reporter activity,RAW-Dual [3]; agonist: LPS (TLR4) 0.1 ug/mL,0.977
O=C(O)CCCCC1CCSS1 (stereo not given) (library stock concentration (final ~1000-fold dilution): 10 mM),IRF Lucia reporter activity,RAW-Dual [3]; [4],0.02
same,IRF Lucia reporter activity,RAW-Dual [3]; agonist: LPS (TLR4) 0.1 ug/mL,0.0586
COc1cc2c(Oc3ccc4[nH]c(C)cc4c3F)ccnc2cc1OCC1(N)CC1.Cl.Cl (library stock concentration (final ~1000-fold dilution): 10 mM),IRF Lucia reporter activity,RAW-Dual [1]; [4],0.184
same,IRF Lucia reporter activity,RAW-Dual [1]; agonist: LPS (TLR4) 0.1 ug/mL,1.04
C#Cc1cccc(Nc2ncnc3cc(OCCOC)c(OCCOC)cc23)c1.Cl,IRF Lucia reporter activity,"RAW-Dual [2]; library stock concentration (final ~1000-fold dilution): 2 mM, cytotoxicity flag (confluency mask): not cytotoxic",0.956
C#Cc1cccc(Nc2ncnc3cc(OCCOC)c(OCCOC)cc23)c1.Cl (library stock concentration (final ~1000-fold dilution): 2 mM),IRF Lucia reporter activity,RAW-Dual [3]; [4],0.27
same,IRF Lucia reporter activity,RAW-Dual [3]; agonist: LPS (TLR4) 0.1 ug/mL,0.435
COc1ccc(-c2cc(=O)c3c(O)cc(OC)cc3o2)cc1 (library stock concentration (final ~1000-fold dilution): 10 mM),IRF Lucia reporter activity,RAW-Dual [3]; [4],0.974
same,IRF Lucia reporter activity,RAW-Dual [3]; agonist: LPS (TLR4) 0.1 ug/mL,0.894
COc1ccc(-c2cc(=O)c3c(O)cc(OC)cc3o2)cc1,IRF Lucia reporter activity,RAW-Dual [2]; [6],1.05
O=c1c2ccccc2nc2n1CCc1c-2[nH]c2ccccc12 (library stock concentration (final ~1000-fold dilution): 10 mM),IRF Lucia reporter activity,RAW-Dual [3]; [4],1.04
same,IRF Lucia reporter activity,RAW-Dual [3]; agonist: LPS (TLR4) 0.1 ug/mL,0.82
O=c1c2ccccc2nc2n1CCc1c-2[nH]c2ccccc12,IRF Lucia reporter activity,RAW-Dual [2]; [6],0.949
O=C(/C=C/C=C/c1ccc2c(c1)OCO2)N1CCCCC1,IRF Lucia reporter activity,RAW-Dual [2]; [6],1.06
O=C(/C=C/C=C/c1ccc2c(c1)OCO2)N1CCCCC1 (library stock concentration (final ~1000-fold dilution): 10 mM),IRF Lucia reporter activity,RAW-Dual [3]; [4],0.947
same,IRF Lucia reporter activity,RAW-Dual [3]; agonist: LPS (TLR4) 0.1 ug/mL,1.02
CC(C)NCC(O)COc1cccc2[nH]c3ccccc3c12 (stereo not given),IRF Lucia reporter activity,RAW-Dual [2]; [6],1.05
CC(C)NCC(O)COc1cccc2[nH]c3ccccc3c12 (stereo not given) (library stock concentration (final ~1000-fold dilution): 10 mM),IRF Lucia reporter activity,RAW-Dual [3]; [4],1.05
same,IRF Lucia reporter activity,RAW-Dual [3]; agonist: LPS (TLR4) 0.1 ug/mL,0.836
Cn1c(=O)cc(N2CCCC(N)C2)n(Cc2cc(F)ccc2C#N)c1=O (stereo not given),IRF Lucia reporter activity,RAW-Dual [2]; [6],0.945
Cn1c(=O)cc(N2CCCC(N)C2)n(Cc2cc(F)ccc2C#N)c1=O (stereo not given) (library stock concentration (final ~1000-fold dilution): 10 mM),IRF Lucia reporter activity,RAW-Dual [3]; [4],0.163
same,IRF Lucia reporter activity,RAW-Dual [3]; agonist: LPS (TLR4) 0.1 ug/mL,0.823
CC(=O)/C(C)=N/O,IRF Lucia reporter activity,RAW-Dual [2]; [6],1.07
CC(=O)/C(C)=N/O (library stock concentration (final ~1000-fold dilution): 10 mM),IRF Lucia reporter activity,RAW-Dual [3]; [4],1.06
same,IRF Lucia reporter activity,RAW-Dual [3]; agonist: LPS (TLR4) 0.1 ug/mL,0.904
Cl.Cl.O=c1cc(CN2CCOCC2)occ1OCCCCCSc1ccnc2cc(C(F)(F)F)ccc12 (library stock concentration (final ~1000-fold dilution): 10 mM),IRF Lucia reporter activity,RAW-Dual [1]; [4],0.502
same,IRF Lucia reporter activity,RAW-Dual [1]; agonist: LPS (TLR4) 0.1 ug/mL,1.03
Cl.Cl.O=c1cc(CN2CCOCC2)occ1OCCCCCSc1ccnc2cc(C(F)(F)F)ccc12,IRF Lucia reporter activity,RAW-Dual [2]; [5],0.925
CCOC(=O)C(CCc1ccccc1)NC(C)C(=O)N1C(=O)N(C)CC1C(=O)O.Cl (stereo not given) (library stock concentration (final ~1000-fold dilution): 10 mM),IRF Lucia reporter activity,RAW-Dual [3]; [4],0.944
same,IRF Lucia reporter activity,RAW-Dual [3]; agonist: LPS (TLR4) 0.1 ug/mL,0.912
CCOC(=O)C(CCc1ccccc1)NC(C)C(=O)N1C(=O)N(C)CC1C(=O)O.Cl (stereo not given),IRF Lucia reporter activity,RAW-Dual [2]; [6],0.958
CNCCc1ccccn1.Cl.Cl (library stock concentration (final ~1000-fold dilution): 10 mM),IRF Lucia reporter activity,RAW-Dual [3]; [4],1.02
same,IRF Lucia reporter activity,RAW-Dual [3]; agonist: LPS (TLR4) 0.1 ug/mL,0.874
CNCCc1ccccn1.Cl.Cl,IRF Lucia reporter activity,RAW-Dual [2]; [6],0.997
CC(O)(P(=O)(O)O)P(=O)(O)O,IRF Lucia reporter activity,RAW-Dual [2]; [7],1.31
CC(O)(P(=O)(O)O)P(=O)(O)O (library stock concentration (final ~1000-fold dilution): 10 mM water),IRF Lucia reporter activity,RAW-Dual [3]; [4],1.31
same,IRF Lucia reporter activity,RAW-Dual [3]; agonist: LPS (TLR4) 0.1 ug/mL,0.711
C=C1CCC2C(C)(CO)C(O)CC[C@@]2(C)[C@@H]1C/C=C1/C(=O)OCC1O (stereo not given in full) (library stock concentration (final ~1000-fold dilution): 10 mM),IRF Lucia reporter activity,RAW-Dual [3]; [4],0.0401
same,IRF Lucia reporter activity,RAW-Dual [3]; agonist: LPS (TLR4) 0.1 ug/mL,0.177
CN(C)CCN(Cc1ccccc1)c1ccccn1.Cl (library stock concentration (final ~1000-fold dilution): 10 mM water),IRF Lucia reporter activity,RAW-Dual [3]; [4],1.35
same,IRF Lucia reporter activity,RAW-Dual [3]; agonist: LPS (TLR4) 0.1 ug/mL,0.908
CN(C)CCN(Cc1ccccc1)c1ccccn1.Cl,IRF Lucia reporter activity,RAW-Dual [2]; [7],1.39
c1cc(-c2cnn3cc(-c4ccc(OCCN5CCCCC5)cc4)cnc23)ccn1 (library stock concentration (final ~1000-fold dilution): 2 mM),IRF Lucia reporter activity,RAW-Dual [3]; [4],0.606
same,IRF Lucia reporter activity,RAW-Dual [3]; agonist: LPS (TLR4) 0.1 ug/mL,0.503
O=C1[C@H](CC[C@H](O)c2ccc(F)cc2)[C@@H](c2ccc(O)cc2)N1c1ccc(F)cc1 (library stock concentration (final ~1000-fold dilution): 10 mM),IRF Lucia reporter activity,RAW-Dual [3]; [4],0.917
same,IRF Lucia reporter activity,RAW-Dual [3]; agonist: LPS (TLR4) 0.1 ug/mL,1.34
CC1COCCN1c1cc(C2(S(C)(=O)=O)CC2)nc(-c2cccc3[nH]ccc23)n1 (stereo not given),IRF Lucia reporter activity,RAW-Dual [2]; [6],0.91
CC1COCCN1c1cc(C2(S(C)(=O)=O)CC2)nc(-c2cccc3[nH]ccc23)n1 (stereo not given) (library stock concentration (final ~1000-fold dilution): 10 mM),IRF Lucia reporter activity,RAW-Dual [3]; [4],0.263
same,IRF Lucia reporter activity,RAW-Dual [3]; agonist: LPS (TLR4) 0.1 ug/mL,0.624

# Source: the supplement of paper PMC10037445
